Experimental data published in paper PMC10853778 (Nucleic Acids Research, 2022).

Target: T1, RTEL1 tandem harmonin homology domains HHD1+2 (residues 886-1140) (human, UniProt Q9NZ71-6 886-1140)
T1 construct: RTEL1, human, residues 886-1140 (HHD1, linker, HHD2) of Uniprot Q9NZ71-6; pET-28a(+), NdeI/XhoI; uniformly 15N-labelled where it was the observed partner; also called HHD1-linker-HHD2; source: E. coli Rosetta (DE3), purified (Ni-NTA, heparin, SEC); not shown: His6, N-terminal, kept
T1 sequence (looked up): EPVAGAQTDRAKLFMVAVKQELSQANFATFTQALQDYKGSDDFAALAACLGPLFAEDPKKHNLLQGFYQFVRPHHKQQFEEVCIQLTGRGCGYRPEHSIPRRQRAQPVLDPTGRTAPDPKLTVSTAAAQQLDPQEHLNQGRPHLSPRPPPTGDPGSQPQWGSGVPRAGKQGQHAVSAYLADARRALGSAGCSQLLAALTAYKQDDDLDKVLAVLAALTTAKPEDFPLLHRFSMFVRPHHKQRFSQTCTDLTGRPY
Assay: NMR titration; 15N-labelled partner titrated with unlabelled partner; 1H-15N HSQC, 25°C, 20 mM Tris-HCl pH 7.4, 50 mM NaCl, 2 mM DTT, 0.02% NaN3; Kd and Koff from TITAN 2D lineshape analysis, two-state model
Conditions: both partners purified

binding result: binds
B1: RPA 32C winged-helix domain ([…] of RPA32) (domain or fragment)
chain: not shown
notes: RPA32 (RPA2), human, […] (winged-helix 32C domain); pET-15b; uniformly 15N-labelled where it was the observed partner; source: E. coli BL21(DE3) pLysS, purified (Ni-NTA, Q column, SEC); not shown: His6, N-terminal, kept
